Measured values as given in paper PMC4336329 (PLoS ONE, 2015).
Screen size: about 310,000 compounds; about 2,200 (0.71%) showed an effect of 50% or more. The effect is printed as a negative number. This is one part of the list.

target: human ether-à-go-go-related gene (hERG) potassium channel (human, UniProt Q12809); experiment: primary screen, population patch clamp on CHO cells stably expressing hERG
Sequence (Q12809 whole entry, looked up): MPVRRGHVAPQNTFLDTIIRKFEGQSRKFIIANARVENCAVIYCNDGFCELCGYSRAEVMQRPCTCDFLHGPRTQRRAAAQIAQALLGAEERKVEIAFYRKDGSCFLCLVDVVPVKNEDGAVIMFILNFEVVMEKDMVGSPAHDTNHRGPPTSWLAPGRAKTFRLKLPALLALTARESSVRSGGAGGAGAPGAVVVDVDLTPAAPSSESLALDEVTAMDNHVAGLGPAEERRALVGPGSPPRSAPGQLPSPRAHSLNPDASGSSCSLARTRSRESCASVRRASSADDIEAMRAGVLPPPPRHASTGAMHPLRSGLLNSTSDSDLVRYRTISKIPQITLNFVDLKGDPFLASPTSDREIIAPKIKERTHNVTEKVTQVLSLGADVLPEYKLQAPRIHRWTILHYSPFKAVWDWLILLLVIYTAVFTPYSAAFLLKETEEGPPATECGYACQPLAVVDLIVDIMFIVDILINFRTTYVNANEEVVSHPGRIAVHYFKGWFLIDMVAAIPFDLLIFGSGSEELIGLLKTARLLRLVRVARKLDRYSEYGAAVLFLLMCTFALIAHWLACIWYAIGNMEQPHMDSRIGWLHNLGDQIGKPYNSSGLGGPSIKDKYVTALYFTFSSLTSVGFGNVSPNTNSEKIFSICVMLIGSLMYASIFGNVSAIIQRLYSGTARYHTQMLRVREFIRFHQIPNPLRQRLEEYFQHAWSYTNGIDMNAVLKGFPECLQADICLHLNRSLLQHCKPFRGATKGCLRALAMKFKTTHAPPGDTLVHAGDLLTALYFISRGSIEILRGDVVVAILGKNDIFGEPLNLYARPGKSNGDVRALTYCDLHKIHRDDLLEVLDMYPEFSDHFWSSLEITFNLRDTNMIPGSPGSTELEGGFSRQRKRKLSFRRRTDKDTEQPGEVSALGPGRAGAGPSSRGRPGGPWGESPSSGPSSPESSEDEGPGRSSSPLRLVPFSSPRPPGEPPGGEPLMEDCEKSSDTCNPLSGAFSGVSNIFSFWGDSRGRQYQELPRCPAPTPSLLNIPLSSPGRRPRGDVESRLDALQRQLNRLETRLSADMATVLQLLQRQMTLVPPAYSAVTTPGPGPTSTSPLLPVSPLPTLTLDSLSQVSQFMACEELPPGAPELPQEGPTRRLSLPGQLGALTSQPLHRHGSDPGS

SMILES	hERG current change (%, negative = inhibition) at 1uM [%]
COc1ccc(NC(=O)C2C(c3ccccc3)C2(Cl)Cl)c(OC)c1 (stereo not drawn)	11.3
O=C(CCC1CCCN(Cc2ccc3c(c2)OCCO3)C1)NCc1ccccc1F (stereo not drawn)	9.98
COc1ccc(OC)c(NC(=O)C2CC(C)=C(C)CC2C(=O)O)c1 (stereo not drawn)	8.14
Cc1onc(-c2c(Cl)cccc2Cl)c1C(=O)c1c[nH]c(C(=O)NCC2CCCO2)c1 (stereo not drawn)	13.4
CCOc1ccc(N=Cc2c(C)[nH]n(-c3nc4ccccc4[nH]3)c2=O)cc1	5.73
CC(=O)c1cccc(NC(=O)CN2C(=O)COc3ccc(S(=O)(=O)N4CCOCC4)cc32)c1	16.7
CCC(CC)NC(=O)c1ccc(Cl)cc1	20.1
O=C(O/N=C1\CCCc2ccccc21)C1CC1	12
O=C(CCc1nnc(Cc2ccc3c(c2)OCO3)o1)N(CC1CCC1)CC1CCCO1 (stereo not drawn)	9.77
CC(=O)c1c(N)nc2n(c1=O)CCCCC2	9.28
Cc1cc(NC(=O)CSc2nc3sc(C)c(C)c3c(=O)n2C2CCCC2)no1	12.5
COc1ccc(OCCC(=O)NC2CCCCC2)cc1	14.2
COc1ccccc1/C=C/C=N/NC(=O)CN1CCN(S(=O)(=O)c2ccc(C)cc2)CC1	-3.2
CN(CC(=O)Nc1ccccc1Br)C(=O)CNC(=O)c1ccc(Oc2ccccc2)cc1	9.1
C=CCNc1nc(N2CCCC2)nc2ccccc12	-66
O=C(O)c1ccccc1Sc1ncnc2sc3c(c12)CCC3	-2.14
COC(=O)C(CC(C)C)NC(=O)c1ccc([N+](=O)[O-])c(C)c1 (stereo not drawn)	8.28
O=S1(=O)CC/C(=N\Nc2ccccc2)c2ccsc21	15.4
Cc1csc(NC(=O)CSc2nnc(-c3ccccc3)o2)n1	6.57
CCCNC(=O)C(Cc1cccc(OC)c1)NC(=O)c1ccc(C#N)cc1 (stereo not drawn)	6.05
NC(=O)C(c1ccccc1)C1CCCC1 (stereo not drawn)	16.6
O=C(NCCc1ccc(C(F)(F)F)cc1)C1CC(=O)N(c2ccc3c(c2)OCCO3)C1 (stereo not drawn)	3.54
O=C(O)c1nccnc1C(=O)Nc1ccccc1N1CCOCC1	-3.19

SMILES	hERG current change (%, negative = inhibition) at 1uM [%]
CC1CCN(C(=O)CN(Cc2ccc(Cl)cc2)S(C)(=O)=O)CC1	13.1
CC(C)CCn1c(Br)nc2c1c(=O)n(CC(N)=O)c(=O)n2C	15.1
CC(=O)N/C(=N/c1nc(C)cc(C)n1)Nc1cc(C)cc(C)c1	-1.18
CCOc1ccc2nc(/N=C/c3c(C)[nH]n(-c4ccc(C)cc4)c3=O)sc2c1	7.53
CCCCn1c(NCCN(C)C)nc2c1c(=O)[nH]c(=O)n2C	2.26
Brc1ccc(OCc2cn3ccccc3n2)cc1	-1.3
Cc1sc2ncnc(SCC(=O)NC(C)C(C)C)c2c1C (stereo not drawn)	11.4
Cc1cccc(NC(=S)N2CCC(c3nc4ccccc4s3)CC2)c1	9.69
Cn1nnc2ccccc2c1=O	12.6
Cc1cc(C)nc(SCc2ccc(C(=O)N/N=C3\CCCC(=O)C3)cc2)n1	26.6
COC(=O)c1ccccc1CCC(C)=O	10.1
CC(C)OC(=O)CSc1nc(Cc2cccs2)nc2ccccc12	5.56
Cc1nn(CC(=O)OC(C)C(=O)Nc2ccccc2[N+](=O)[O-])c(C)c1[N+](=O)[O-] (stereo not drawn)	-2
Cc1cccc2c(SCC(N)=O)nc(-c3ccccc3)nc12	6.86
Cc1ccc(S(=O)(=O)NCCC(=O)OCC(=O)Nc2ccccc2Cl)cc1	15.8
O=C1C(=O)N(CC(=O)N2CCCC2)c2ccccc21	8.34
O=C(COC(=O)CCOc1ccccc1)Nc1cc(S(=O)(=O)N2CCCCC2)ccc1Cl	-0.399
O=C(NCC1CCCO1)c1cc2cc(Cl)ccc2[nH]1 (stereo not drawn)	15.1
CCOc1ccc(CCNC(=O)CCc2nnc3ccc(N4CCCC4)nn23)cc1OCC	1.7
CCc1ccc(-c2cc(C(F)(F)F)n3nc(C(=O)Nc4c(C)nn(Cc5ccccc5C)c4C)cc3n2)s1	6.45
O=C(CSc1nnc(C2CC2)n1Cc1ccccc1)Nc1cccnc1Cl	12.1
COc1ccc(-c2c(-c3ccccc3OC)oc3ccccc23)cc1F	8.13
CCOC(=O)c1[nH]c(C)c(C(=O)NCCCOC(C)C)c1C	14.7

SMILES	hERG current change (%, negative = inhibition) at 1uM [%]
O=C(CN1CCCCCC1)NCC1CCCO1.O=C(O)C(=O)O (stereo not drawn)	13.7
Cc1oc(-c2ccccc2F)nc1CS(=O)(=O)CC(=O)NCCCN(C)C1CCCCC1	9.7
CSc1ccc(CN(C)C(=O)C(c2ccccc2)c2ccccc2)cc1	5.46
CCN(CCn1cccn1)C(=O)c1cc(COc2ccccc2SC)on1	3.51
CCC(=O)Nc1ccc2nc3c(=O)[nH]c(=S)[nH]c3nc2c1	20.7
C=CCn1c(SCC(=O)NC2CCCCC2)nc2ccccc2c1=O	15
Brc1ccc2[nH]c3nc(SCCN4CCOCC4)nnc3c2c1	9.78
CCN(CC)C(=O)CSc1nnc(-c2ccc(O)cc2)n1CC1CCCO1 (stereo not drawn)	21.8
Cc1ccccc1NC(=O)C(=O)NCC1CCCN1S(=O)(=O)c1cccs1 (stereo not drawn)	20.3
O=C(CSc1nc2cccnc2n1Cc1ccccc1)NC1CCCCC1	-15.6
Cc1cc(C)cc(S(=O)(=O)c2cnc3ccccc3n2)c1	26.8
Cc1nc(C)c(-c2csc(NCCc3ccccc3)n2)s1.O=C(O)C(=O)O	14.2
COc1ccc(OC)c(C(C)NC(=O)C(C)Cc2ccccc2)c1 (stereo not drawn)	11
Cc1ccc(C(=O)N2c3ccc(F)cc3CCC2C)o1 (stereo not drawn)	14.1
COc1ccccc1N1CCN(C(=O)CSc2nnc3c4ccccc4n(CC(=O)O)c3n2)CC1	8.39
Cc1cccc(NC(=O)CSc2nc(=O)n(CCN3CCOCC3)c3c2CCCC3)c1C	7.72
CCOc1cc2c(cc1OCC)-n1cccc1C(c1cccc(OCC)c1O)NC2.Cl (stereo not drawn)	10.6
CN(c1ccccc1)S(=O)(=O)c1ccc(C(=O)Nc2nnc(C3CC3)o2)cc1	6.03
O=c1c2ccccc2nc2n1CC/C2=C\N1CCN(c2ccc([N+](=O)[O-])cc2)CC1	-62.1
CCN(CC(=O)Nc1c(F)cccc1F)C(=O)c1cc2c(cc1Cl)N1CCCCCC1=NS2(=O)=O	19.5
COC(=O)c1cc(NC(=O)CCc2c(C)nc3ncnn3c2C)cc(C(=O)OC)c1	-1.04
O=C(Nc1ccncc1)C1CCN(S(=O)(=O)c2ccccc2)CC1	9.44
CCn1c(SC/C=C/c2ccccc2)nnc1-c1cccs1	-12.9

SMILES	hERG current change (%, negative = inhibition) at 1uM [%]
C/C(=N\Nc1cc(C(F)(F)F)ccc1Cl)c1ccncc1	15.4
CN(C)c1ccc(/C=C2\SC(=S)N(Nc3ncc(C(F)(F)F)cc3Cl)C2=O)cc1	0.807
CCOC(=O)C1CCCN(S(=O)(=O)c2ccc3ccccc3c2)C1 (stereo not drawn)	-3.9
CCN1CCN(C(c2cccs2)C(C)NC(=O)C(C)C)CC1 (stereo not drawn)	12.9
O=C(O)CNS(=O)(=O)c1ccc2[nH]c(=O)c(=O)[nH]c2c1	14.6
O=C(CSc1cccc[n+]1[O-])c1ccc(Cl)cc1	0.232
O=C(CCc1ccccc1)Nc1ccc(S(=O)(=O)N2CCOCC2)cc1	6.41
Cc1cccc(Nc2nc(C)cc(C)c2C#N)c1	10.9
O=C(CS(=O)(=O)c1ccccc1)Nc1nnc(C(F)(F)F)s1	19.3
O=C(NC(Cc1ccccc1)c1ccc2c(c1)OCCCO2)c1ccc(F)cc1 (stereo not drawn)	7.49
C=CCN=C(SCC(=O)c1ccc(Cl)cc1)c1c(O)n(C)c(=O)n(C)c1=O	1.99
CC(c1ccccc1)N(C)C(=O)CSc1nnc(C2CC2)n1C1CC1 (stereo not drawn)	3.78
CCc1ccc(C(=O)NNc2cc(Cl)ccc2Cl)cc1	12.5
CC(=O)c1cc(C(C)=O)c(C)nc1C	12.2
O=C(CSc1cc(Cl)ccc1Cl)NC1CCCC1	8.37
O=C1CCC(C(=O)N2CCSCC2)CN1Cc1ccc(Cl)cc1 (stereo not drawn)	12.3
Cc1ccc(NC(=O)c2ccc(C)c(S(=O)(=O)N3CCCCC3)c2)nc1	8.78
CN(C)S(=O)(=O)c1cc(NC2CC(=O)N(c3ccc(F)cc3)C2=O)ccc1Cl (stereo not drawn)	-20.9
O=c1c2ccccc2nc(CNc2ccccc2)n1-c1ccccc1	12.9
CC(=O)c1cccc(OCC(=O)Nc2cc(S(=O)(=O)N3CCOCC3)ccc2N2CCCC2)c1	10.9
CCc1ccccc1N1C[C@@]23C=C[C@@H](O2)C(C(=O)OCC(C)C)[C@H]3C1=O (stereo partly drawn)	-0.721
